The campaign covered roughly 43,000 compounds. About 200 (0.47%) were called active. Another 12% or so got no clear call; they are omitted. Calls follow the shape of the dose curve; as a rule, active = well fitted cell-killing curve with a large enough effect; inconclusive = small, poorly fitted or top-dose-only effect, or effect the other way; inactive = flat fitted curve, though single readings scatter. This is one part of the list.
Assay: Cell viability qHTS assay in S16 Pmp22-F2sN cells; also: nearly all actives have a fitted effect of over 65% in size
Conditions: S16 Pmp22-F2sN Schwann cells (luciferase reporters placed in the Pmp22 gene) viability, CellTiter-Glo, 24 h; series mostly up to 57.5 µM; activity change, negative = cytotoxicity: at the top concentration
Procedure, shortened: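 Rat S16 Schwann reporter line, 24 h treatment with library compounds delivered at 23 nL per well. Cell viability by CellTiter-Glo luminescence.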
% is scaled to controls: 0 for no effect and ±100 for the full control effect; potency is read from the fitted curve at half-maximal effect.

Structure (SMILES)	activity change, negative = cytotoxicity	Potency
COc1ccc(C)cc1NC(=O)Nc1cccc(-c2noc(C)n2)c1	inactive: 11.2%	
CCc1ccc(NC(=O)Cn2c(=O)n(CCC(=O)NCCc3ccc(Cl)cc3)c(=O)c3ccccc32)cc1	inactive: -6.17%	
CCCOc1ccc(CNC(=O)c2[nH]c3cc(OC)ccc3c2Sc2ccccc2)cc1	inactive: -0.0375%	
O=C(Cn1ncn2c(cc3ccccc32)c1=O)NCc1ccc(F)cc1	inactive: 8.8%	
Cc1ccc(-c2cc(-c3ccccc3)c(C#N)c(SCC(O)CS(=O)(=O)Cc3ccccc3)n2)cc1 (stereo not drawn)	inactive: -6.28%	
CCC(=O)N1CCc2cc(S(=O)(=O)NC(Cc3ccccc3)C(=O)Nc3ccccc3C)ccc21 (stereo not drawn)	inactive: -1.39%	
O=S(=O)(c1ccc(Cl)cc1)c1nc(-c2ccco2)oc1SCc1ccccc1F	inactive: -13.2%	
Cc1cccc(NC(=O)C(=O)NCC(c2ccc3c(c2)OCO3)N2CCN(c3ccccc3)CC2)c1 (stereo not drawn)	inactive: 5.47%	
O=C(Nc1sc2c(c1C(=O)Nc1ccccc1)CCC2)c1ccc(Br)cc1	inactive: 9.93%	
CCOCCCNC(=O)C(c1ccccc1)N1Cc2ccccc2C1=O (stereo not drawn)	inactive: 5.9%	
CC(=O)c1cccc(NS(=O)(=O)c2cc3c(cc2C)n(C)c(=O)c(=O)n3C)c1	inactive: 1.44%	
COc1cccc(Cc2nc3ccccc3nc2SCC(=O)N2CCCc3ccccc32)c1	inactive: -11.5%	
COc1ccc(CNC(=O)CC(c2ccc(OC)cc2)N2Cc3ccccc3C2=O)cc1 (stereo not drawn)	inactive: 7.78%	
Cc1ccc(NC(=O)c2ccc(CN3CC(=O)N4CCCCC4C3=O)cc2)c(C)c1 (stereo not drawn)	inactive: 12.5%	
CCOc1cccc(C(=O)Nc2cc(C)c(O)c(-c3nc4ncccc4o3)c2)c1	inactive: -1.95%	
Cc1ccc2c(=O)c(C(=O)c3ccc(F)cc3)cn(CC(=O)Nc3ccc4c(c3)OCCO4)c2n1	inactive: 8.51%	
O=C(c1ccc2c(c1)N(Cc1ccccc1)C(=O)c1ccccc1S2(=O)=O)N1CCc2ccccc21	inactive: 9.9%	
COc1ccc(OC)c(-n2c3c(cc(-c4nc(-c5ccc(Cl)cc5)cs4)c2=O)C(=O)CC(C)(C)C3)c1	inactive: -1.78%	
CCCNC(=O)CN1C(=O)COc2ccc(S(=O)(=O)N3CCC(C)CC3)cc21	inactive: 7.14%	
Cc1c(NC(=O)C(C)(C)Oc2ccc(Cl)cc2)cccc1-c1nc2ccccc2o1	inactive: 1.56%	
CCOC(=O)c1c(NC(=O)c2cc(=O)c3cc(C)cc(C)c3o2)sc(C)c1C	inactive: -3.02%	
Cc1ccc(-c2nn(CC(=O)NCc3ccccc3)c3c2cnc2ccc(F)cc23)cc1C	inactive: 13%	
O=C(CSc1nccn1C1CCCC1)Nc1cc(C(F)(F)F)ccc1Cl	inactive: 4.12%	
O=C(CS(=O)(=O)c1cccc2nsnc12)NCc1ccccc1	inactive: 6.11%	

Structure (SMILES)	activity change, negative = cytotoxicity	Potency
COc1cc(NC(=O)C(Cc2ccccc2)NS(=O)(=O)c2cccs2)cc(OC)c1 (stereo not drawn)	inactive: 1.26%	
COc1cc(OC)c(NC2=C(c3ccc(C(F)(F)F)cc3)C(=O)c3ccccc32)cc1Cl	inactive: -4.84%	
O=C(Cn1c(=O)nc(-c2ccccc2)c2ccccc21)N1CCN(c2ccc(F)cc2)CC1	inactive: -1.82%	
O=C(O)CSc1nc2ccc(NC(=O)COc3ccc(Cl)cc3)cc2s1	inactive: -3.68%	
Cc1ccc(-n2c(=O)c3c(c4cc(C)ccc4n3C)n(CC(=O)c3ccc(Cl)cc3)c2=O)cc1	inactive: 2.17%	
CC(C)Oc1ccccc1NC(=O)CSc1nccn1C	inactive: -6.47%	
C#CCn1c(=O)n(-c2cccc(Cl)c2C)c(=O)c2c3c(sc21)CN(C(C)=O)CC3	inactive: 0.706%	
CC(=O)c1ccc(-n2c(CCC(=O)O)ccc2-c2cccs2)cc1	inactive: 0.0138%	
O=C(CCS(=O)(=O)c1ccccc1)N(Cc1cccnc1)c1nc2ccc(F)cc2s1		active: 4.47 µM
Cc1ccc(C)c(CSc2nnc(C)n3c2cc2sccc23)c1	inactive: 1%	
CCOc1ccc(CNC(=O)Cn2nc(C)c3c(C)n(-c4ccc(C)cc4)nc3c2=O)cc1	inactive: 11.6%	
COc1ccc(C(=O)COC(=O)c2cc(-c3cccs3)nc3ccccc23)cc1	inactive: -1.53%	
COc1ccc(OC)c(Nc2sc(C(=O)c3ccccc3)c(N)c2S(=O)(=O)c2ccccc2)c1	inactive: -1.09%	
O=c1oc2ccccc2c(N2CCN(c3ccc(F)cc3)CC2)c1CN1CCCC1	inactive: -0.467%	
Cc1cccc(N2CCN(S(=O)(=O)c3cc(C(=O)Nc4ccc(Oc5ccccc5)cc4)ccc3F)CC2)c1C	inactive: -23.6%	
O=C(Cn1ncc2c([nH]c3ccccc32)c1=O)NCCCN1CCN(c2ccccc2)CC1	inactive: 8.45%	
Cc1ccc(CNC(=O)Cc2csc3ccccc23)cc1	inactive: -9.61%	
Cc1c(Cl)cccc1-n1ncc(C(=O)NC2CCCCC2)c1C1CCN(C(=O)OC(C)(C)C)CC1	inactive: 4.21%	
CCOC(=O)c1cccc(NC(=O)c2oc3c(c2C)-c2nn(CC)cc2CC3)c1	inactive: -21.8%	
CCOc1ccc(CCNC(=O)CSc2nnnn2-c2ccccc2)cc1OCC	inactive: 0.298%	
COc1ccc(Br)cc1[C@@H]1Nc2ccc(C(=O)O)cc2[C@@H]2C=CC[C@@H]21	inactive: 10.3%	
CCc1nn2c(=O)cc(COC(=O)c3ccccc3NC(=O)COc3ccc(C)c(C)c3)nc2s1	inactive: -8.33%	
Cc1oc(-c2ccccc2F)nc1CN1CCC(C(=O)NCCc2ccccc2)CC1	inactive: 1.31%	
CC(C(=O)Nc1ccc(OC(F)(F)F)cc1)N1Cc2ccccc2C1=O (stereo not drawn)	inactive: -20.5%	

— PubChem BioAssay AID1508642 (National Center for Advancing Translational Sciences (NCATS), 2021)
